# From article PMC10668032
# Some of the results follow. At the low end of the ranking the order means little.
# Target: SIX1-Q177R homeodomain (UniProt Q15475)
# Experiment: universal protein binding microarray
# Conditions: Universal all-10-mer PBM (8x60K, AMADID 030236), 300 nM GST-tagged protein, Alexa Fluor 488 anti-GST; buffer, salt, pH and temperature not stated; high values mean tight binding; most listed sequences are background and not binding sites; double strand, one strand shown
row,Sequence,binding signal [E-score]
1,CATGCGTA,-0.0502
2,AGACATCA,-0.0731
3,ATACGGAA,-0.104
4,CTGGTCCA,-0.0407
5,AGCGGGTA,0.158
6,ATAGCGAA,-0.16
7,CATAGTCA,-0.197
8,GATCCCGC,0.185
9,AATAATAA,0.00188
10,AGAGACCT,-0.3
11,GAAAAACA,0.108
12,ACTTCGTA,-0.193
13,AGGGGTAC,0.273
14,GGCGTGAC,0.0401
15,AGTGTTTG,0.336
16,CTCGAGAC,0.0473
17,CCATACGA,-0.0127
18,GTAATCGA,0.204
19,TCGTACGA,-0.0591
20,GACTTTCA,-0.204
21,CAATCCCG,0.0598
22,CAATACGA,0.0173
23,GGTCCTGA,-0.128
24,CGTACGAC,0.0567
25,CCGGTCCG,-0.114

row,Sequence,binding signal [E-score]
1,ACCTATTC,-0.152
2,CGGTCACG,-0.234
3,ACCGGAGT,0.25
4,TACCCCCA,0.304
5,AGTCCTTG,-0.279
6,CTGTACTA,-0.185
7,TAGTCTAA,-0.241
8,ACCGGTCG,-0.0599
9,GGATGTGA,-0.154
10,CGTACAGA,-0.0605
11,ACCTGCTC,0.0304
12,GCAGCGCC,-0.174
13,TTCAAGAA,-0.0127
14,AAAAGGCC,-0.0372
15,CGATGTCA,-0.233
16,GCAGTGCA,-0.0186
17,ACTGTGTA,0.139
18,CGGCGTTC,-0.0306
19,CTGTGCAC,0.216
20,ACCTCGTC,-0.0193
21,AACCGAAG,-0.112
22,CGACCCTC,0.0648
23,AAATATTG,-0.229
24,GTCAGTAA,0.111
25,ACACCGAG,0.478

row,Sequence,binding signal [E-score]
1,GCACGCAA,0.0455
2,CGCCATAA,-0.144
3,CGGAAGGA,-0.0458
4,AAGGAGCC,-0.0656
5,GATCACGA,-0.001
6,GCATGATA,-0.027
7,AGGAAAAA,-0.217
8,GAATGCGC,0.0683
9,TGTTATAA,0.267
10,GGCGCACC,0.149
11,AAAGACAC,0.425
12,CCCTGCCG,0.0946
13,CCAAATGC,-0.0339
14,ATGCGAAC,0.0387
15,AAGCATAT,-0.288
16,ACCCGTTG,0.151
17,CAATCCGG,0.0613
18,CTCCTGGC,-0.0387
19,AATAGCGC,-0.0487
20,AGCCCCCC,0.112
21,ACGTCGGC,-0.253
22,CTAGGATC,0.0719
23,GCGCGACC,0.0404
24,GTCCATGA,0.0465
25,ATTTGCTC,-0.237

row,Sequence,binding signal [E-score]
1,ATGGGGAC,-0.0165
2,ATAGCCAG,-0.204
3,ACCCACTA,0.105
4,GAGATTAA,-0.27
5,CGAAACAG,-0.193
6,GCGACTCC,0.262
7,ACAATTGG,-0.085
8,CTACCAGA,-0.0607
9,CACCACCG,0.355
10,CAGAAGTC,-0.134
11,CGACAGCA,-0.204
12,CTGTGGTC,-0.0737
13,AGCTGACG,-0.21
14,ACGACTAC,0.0149
15,GTTGTGGA,-0.0646
16,AGTCGAGC,-0.267
17,AATAGAAA,-0.00737
18,AACACCGA,0.469
19,AACACGAC,0.373
20,CATTGAAC,-0.0506
21,ACAGGAGG,-0.0345
22,CGAACCGA,0.0564
23,TATCCCCA,0.114
24,GCTCAGTA,0.0624
25,TAAACCTA,0.00984

row,Sequence,binding signal [E-score]
1,GATCTCTA,-0.222
2,CGGGACGA,-0.0572
3,CGGCCTTA,-0.198
4,GGATAATA,0.111
5,GCACTAGC,0.125
6,AAAGCTAG,-0.21
7,ATCATGGC,-0.0689
8,CAAGAGAC,-0.0111
9,CCCCCTAG,0.0681
10,AACGCAAA,-0.154
11,GCCAATAA,-0.113
12,GAGGAATC,-0.0718
13,GCGGCTCA,-0.0736
14,ATGGAAAG,-0.227
15,GCGTCTCC,0.0439
16,CACTCAGC,0.114
17,AGTATTCG,-0.202
18,TCGTTACA,0.278
19,TAATGAGA,-0.195
20,CCGAACGA,0.133
21,GAGCCGCC,-0.0985
22,ACTGAGCT,-0.0707
23,ACGCGTTG,-0.00609
24,GGATGCGA,-0.165
25,ACGCATTC,-0.155

row,Sequence,binding signal [E-score]
1,AGTGTCTC,0.329
2,CGCCAGAA,0.0208
3,ACCGATCG,-0.0746
4,GCACGCAC,0.123
5,AATTTGGA,-0.0664
6,CAGGATTA,0.0279
7,CGTACCAA,0.00849
8,ACTAAAGT,-0.0957
9,CTTAGGCC,0.0518
10,CACATAGA,-0.0656
11,AGTGGTCC,-0.215
12,AAGGCTGA,-0.19
13,CTCATCGC,-0.0999
14,ATGGGACC,-0.0715
15,AAACTAGT,-0.158
16,ATTTACAC,0.451
17,ACAGATAG,-0.152
18,GAAATCGA,-0.201
19,AGAAGCCG,-0.175
20,GACTTTAC,0.047
21,ACGTCGTC,-0.228
22,AAATCACG,-0.121
23,CCCGACAA,0.0176
24,AAATGCAG,-0.162
25,CGACCACA,0.0686

row,Sequence,binding signal [E-score]
1,AACCATAC,0.0445
2,CGGGCCCA,-0.22
3,ATGATTAC,-0.136
4,GGAACGAA,-0.0782
5,AACATTGA,-0.163
6,ATACCGGC,0.0811
7,AAGAGTAT,-0.00511
8,ATTGGTTC,-0.148
9,ATTTTGGA,-0.142
10,AGAAGTAC,0.0714
11,AATAGATT,-0.141
12,ACGATGGC,-0.111
13,CCAAAACC,0.00258
14,TCATAAGA,-0.0328
15,ACACTACA,0.41
16,CACACCTA,0.333
17,AGCTGCTC,-0.0419
18,CGATTATA,-0.0193
19,AACCACGG,-0.0772
20,AGTGGTTC,-0.0702
21,GTACGGAA,-0.0201
22,ACGCCAAG,0.0803
